Consider 31 molecules from article PMC9911399, “Two distinct binding modes provide the RNA-binding protein RbFox with extraordinary sequence specificity”.

Changes are numbered by the printed parent chain; changes in the protein carry UniProt numbers. The list shows a part of the results.

Sequences and labels used below:
B1: GAUCAAU (DNA:RNA)
RNA: GGGAGACCGGAAUUCAGAUUGUCCGAUCAAUUUAAAUCCCGUCGUAGCCACCA
DNA 1: CAATCTGAATTCCGGTCTCCC
DNA 2: TGGTGGCTACGACGGGATT
B2: GCAAAUA (DNA:RNA)
RNA: B1 RNA with A26C, U27A, C28A, A30U, U31A
DNA 1: CAATCTGAATTCCGGTCTCCC
DNA 2: TGGTGGCTACGACGGGATT
B3: CUAUAAG (DNA:RNA)
RNA: B1 RNA with G25C, A26U, U27A, C28U, U31G
DNA 1: CAATCTGAATTCCGGTCTCCC
DNA 2: TGGTGGCTACGACGGGATT
B4: CAUGAUA (DNA:RNA)
RNA: B1 RNA with G25C, C28G, A30U, U31A
DNA 1: CAATCTGAATTCCGGTCTCCC
DNA 2: TGGTGGCTACGACGGGATT
B5: CAAUCCU (DNA:RNA)
RNA: B1 RNA with G25C, U27A, C28U, A29C, A30C
DNA 1: CAATCTGAATTCCGGTCTCCC
DNA 2: TGGTGGCTACGACGGGATT
B6: CACUGAA (DNA:RNA)
RNA: B1 RNA with G25C, U27C, C28U, A29G, U31A
DNA 1: CAATCTGAATTCCGGTCTCCC
DNA 2: TGGTGGCTACGACGGGATT
B7: GAAGAAC (DNA:RNA)
RNA: B1 RNA with U27A, C28G, U31C
DNA 1: CAATCTGAATTCCGGTCTCCC
DNA 2: TGGTGGCTACGACGGGATT
B8: GGGGUCC (DNA:RNA)
RNA: B1 RNA with A26G, U27G, C28G, A29U, A30C, U31C
DNA 1: CAATCTGAATTCCGGTCTCCC
DNA 2: TGGTGGCTACGACGGGATT
B9: AACCGUG (DNA:RNA)
RNA: B1 RNA with G25A, U27C, A29G, A30U, U31G
DNA 1: CAATCTGAATTCCGGTCTCCC
DNA 2: TGGTGGCTACGACGGGATT
B10: GAAUGAG (DNA:RNA)
RNA: B1 RNA with U27A, C28U, A29G, U31G
DNA 1: CAATCTGAATTCCGGTCTCCC
DNA 2: TGGTGGCTACGACGGGATT
B11: GUGUGGG (DNA:RNA)
RNA: B1 RNA with A26U, U27G, C28U, A29G, A30G, U31G
DNA 1: CAATCTGAATTCCGGTCTCCC
DNA 2: TGGTGGCTACGACGGGATT
B12: GAGUCUC (DNA:RNA)
RNA: B1 RNA with U27G, C28U, A29C, A30U, U31C
DNA 1: CAATCTGAATTCCGGTCTCCC
DNA 2: TGGTGGCTACGACGGGATT
B13: GCACGAG (DNA:RNA)
RNA: B1 RNA with A26C, U27A, A29G, U31G
DNA 1: CAATCTGAATTCCGGTCTCCC
DNA 2: TGGTGGCTACGACGGGATT
B14: GCUGGGG (DNA:RNA)
RNA: B1 RNA with A26C, C28G, A29G, A30G, U31G
DNA 1: CAATCTGAATTCCGGTCTCCC
DNA 2: TGGTGGCTACGACGGGATT
B15: CACGCAG (DNA:RNA)
RNA: B1 RNA with G25C, U27C, C28G, A29C, U31G
DNA 1: CAATCTGAATTCCGGTCTCCC
DNA 2: TGGTGGCTACGACGGGATT
B16: UUUUCUC (DNA:RNA)
RNA: B1 RNA with G25U, A26U, C28U, A29C, A30U, U31C
DNA 1: CAATCTGAATTCCGGTCTCCC
DNA 2: TGGTGGCTACGACGGGATT
B17: CACCUGA (DNA:RNA)
RNA: B1 RNA with G25C, U27C, A29U, A30G, U31A
DNA 1: CAATCTGAATTCCGGTCTCCC
DNA 2: TGGTGGCTACGACGGGATT
B18: UACGCCG (DNA:RNA)
RNA: B1 RNA with G25U, U27C, C28G, A29C, A30C, U31G
DNA 1: CAATCTGAATTCCGGTCTCCC
DNA 2: TGGTGGCTACGACGGGATT
B19: UUCUCCU (DNA:RNA)
RNA: B1 RNA with G25U, A26U, U27C, C28U, A29C, A30C
DNA 1: CAATCTGAATTCCGGTCTCCC
DNA 2: TGGTGGCTACGACGGGATT
B20: GCGGACU (DNA:RNA)
RNA: B1 RNA with A26C, U27G, C28G, A30C
DNA 1: CAATCTGAATTCCGGTCTCCC
DNA 2: TGGTGGCTACGACGGGATT
B21: AAACGCA (DNA:RNA)
RNA: B1 RNA with G25A, U27A, A29G, A30C, U31A
DNA 1: CAATCTGAATTCCGGTCTCCC
DNA 2: TGGTGGCTACGACGGGATT
B22: CGGUUUU (DNA:RNA)
RNA: B1 RNA with G25C, A26G, U27G, C28U, A29U, A30U
DNA 1: CAATCTGAATTCCGGTCTCCC
DNA 2: TGGTGGCTACGACGGGATT
B23: AGGUAGU (DNA:RNA)
RNA: B1 RNA with G25A, A26G, U27G, C28U, A30G
DNA 1: CAATCTGAATTCCGGTCTCCC
DNA 2: TGGTGGCTACGACGGGATT
B24: AUCAGUG (DNA:RNA)
RNA: GGGAGACCGGAAUUCAGAUUGUCCAUCAGUGUUAAAUCCCGUCGUAGCCACCA
DNA 1: CAATCTGAATTCCGGTCTCCC
DNA 2: TGGTGGCTACGACGGGATT
B25: GAUCGAC (DNA:RNA)
RNA: B1 RNA with A29G, U31C
DNA 1: CAATCTGAATTCCGGTCTCCC
DNA 2: TGGTGGCTACGACGGGATT
B26: UAGACCC (DNA:RNA)
RNA: B24 RNA with A25U, U26A, C27G, G29C, U30C, G31C
DNA 1: CAATCTGAATTCCGGTCTCCC
DNA 2: TGGTGGCTACGACGGGATT
B27: UGAGUCA (DNA:RNA)
RNA: GGGAGACCGGAAUUCAGAUUGUCCUGAGUCAUUAAAUCCCGUCGUAGCCACCA
DNA 1: CAATCTGAATTCCGGTCTCCC
DNA 2: TGGTGGCTACGACGGGATT
B28: CUGCGUU (DNA:RNA)
RNA: B24 RNA with A25C, C27G, A28C, G31U
DNA 1: CAATCTGAATTCCGGTCTCCC
DNA 2: TGGTGGCTACGACGGGATT
B29: AUGAUUC (DNA:RNA)
RNA: B24 RNA with C27G, G29U, G31C
DNA 1: CAATCTGAATTCCGGTCTCCC
DNA 2: TGGTGGCTACGACGGGATT
B30: CUGAAUA (DNA:RNA)
RNA: B24 RNA with A25C, C27G, G29A, G31A
DNA 1: CAATCTGAATTCCGGTCTCCC
DNA 2: TGGTGGCTACGACGGGATT
B31: AAUAGCG (DNA:RNA)
RNA: B24 RNA with U26A, C27U, U30C
DNA 1: CAATCTGAATTCCGGTCTCCC
DNA 2: TGGTGGCTACGACGGGATT

The target in the test is T1, RBFOX1 RRM RbFoxmut (Fox-RRM*) (Homo sapiens, UniProt Q9NWB1 109-208, R118D;E147R;N151S;E152T).
T1 sequence: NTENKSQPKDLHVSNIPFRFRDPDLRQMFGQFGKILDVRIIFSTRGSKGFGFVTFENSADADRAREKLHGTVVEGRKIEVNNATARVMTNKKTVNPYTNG
The test is described as follows: EMSA; HiTS-Eq, 1 nM pool, 10 min; buffer printed only for the single-RNA assays: 10 mM Tris pH 7.5, 150 mM NaCl, 3.4 mM EDTA, 0.001% NP-40, 30 C. To be noted: tags: His6 N-terminal (pET28a); label: 5' 32P. An outline of the steps: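 Relative association constants, normalised to the cognate motif, were derived by comparing read counts of each RNA species with those of the control reaction. The RNA sequenced was the free fraction, separated by 8% native PAGE after a 10 min equilibration in 50 µL of 1 nM 5′-radiolabelled RNA (7 randomized nucleotides) with increasing concentrations of purified wild-type or mutant RbFox RRM.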
Regarding B1, the binding signal is 0.0528 KA relative to UGCAUGU.

Consider B2, for which the binding signal is 0.1 KA relative to UGCAUGU.

For B3, the binding signal was 0.0991 KA relative to UGCAUGU.

Take B4: the binding signal is 0.136 KA relative to UGCAUGU.

On to B5, for which the binding signal is 0.087 KA relative to UGCAUGU.

Turning to B6, the binding signal was 0.0869 KA relative to UGCAUGU.

For the molecule B7, the binding signal was 0.0735 KA relative to UGCAUGU.

As to B8, the binding signal was 0.127 KA relative to UGCAUGU.

Regarding B9, the binding signal was 0.109 KA relative to UGCAUGU.

For B10, the binding signal is 0.983 KA relative to UGCAUGU.

Take B11: the binding signal is 0.102 KA relative to UGCAUGU.

Consider B12, for which the binding signal was 0.0746 KA relative to UGCAUGU.

For B13, the binding signal was 0.405 KA relative to UGCAUGU.

For B14, the binding signal is 0.0954 KA relative to UGCAUGU.

B15: the binding signal was 0.103 KA relative to UGCAUGU.

Regarding B16, the binding signal is 0.0443 KA relative to UGCAUGU.

For the molecule B17, the binding signal was 0.0878 KA relative to UGCAUGU.

As for B18, the binding signal was 0.0796 KA relative to UGCAUGU.

In the case of B19, the binding signal was 0.0487 KA relative to UGCAUGU.

For B20, the binding signal is 0.0813 KA relative to UGCAUGU.

B21: the binding signal was 0.117 KA relative to UGCAUGU.

Consider B22, for which the binding signal is 0.0605 KA relative to UGCAUGU.

Take B23: the binding signal is 0.118 KA relative to UGCAUGU.

Consider B24, for which the binding signal is 0.17 KA relative to UGCAUGU.

For the molecule B25, the binding signal is 0.0797 KA relative to UGCAUGU.

Consider B26, for which the binding signal was 0.0507 KA relative to UGCAUGU.

For B27, the binding signal was 0.151 KA relative to UGCAUGU.

Consider B28, for which the binding signal is 0.0925 KA relative to UGCAUGU.

Regarding B29, the binding signal is 0.139 KA relative to UGCAUGU.

On to B30, for which the binding signal was 0.0906 KA relative to UGCAUGU.

Turning to B31, the binding signal is 0.104 KA relative to UGCAUGU.
